# Data reported in US20220213195A1 (SHANDONG BOAN BIOTECHNOLOGY, published 2022).
# Legend:
# [1] = molecular target: T1, TGFβ1 (Sinobiological, catalog number: 10804-HNAC) (UniProt P01137 fragment); assay: ELISA, TGFβ1 coated at 0.2 µg/mL, fusion protein 1 µg/mL
# T1 construct: Bought recombinant protein; also called TGFβ1 protein
# [2] = molecular target: T1, TGFβ1 (Sinobiological, catalog number: …); assay: ELISA, TGFβ1 coated at 0.0125 µg/mL, fusion protein 1 µg/mL
# [3] = molecular target: T1, TGFβ1 (Sinobiological, catalog number: …); assay: ELISA, TGFβ1 coated at 0.05 µg/mL, fusion protein 1 µg/mL
# T1 sequence (P01137 279-390 limits assumed): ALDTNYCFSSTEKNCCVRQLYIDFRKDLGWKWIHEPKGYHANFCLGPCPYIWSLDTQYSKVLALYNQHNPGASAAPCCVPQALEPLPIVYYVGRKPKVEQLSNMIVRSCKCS
binder,measurement,setting,value
"PLTGB-M7824-IgG1 (other, Control made in-house: Avelumab variable regions, with TGFβRII linked to the heavy chain by (G4S)4G; expressed in HEK293 cells; also called control bifunctional fusion protein) heavy: EVQLLESGGGLVQPGGSLRLSCAASGFTFSSYIMMWVRQAPGKGLEWVSSIYPSGGITFYADTVKGRFTISRDNSKNTLYLQMNSLRAEDTAVYYCARIKLGTVTTVDYWGQGTLVTVSS[human IgG1 constant region not listed]GGGGSGGGGSGGGGSGGGGSGIPPHVQKSVNNDMIVTDNNGAVKFPQLCKFCDVRFSTCDNQKSCMSNCSITSICEKPQEVCVAVWRKNDENITLETVCHDPKLPYHDFILEDAASPKCIMKEKKKPGETFFMCSCSSDECNDNIIFSEEYNTSNPD light: QSALTQPASVSGSPGQSITISCTGTSSDVGGYNYVSWYQQHPGKAPKLMIYDVSNRPSGVSNRFSGSKSGNTASLTISGLQAEDEADYYCSSYTSSSTRVFGTGTKVTVLGQPKANPTVTLFPPSSEELQANKATLVCLISDFYPGAVTVAWKADGSPVKAGVETTKPSKQSNNKYAASSYLSLTPEQWKSHRSYSCQVTHEGSTVEKTVAPTECS",OD450,[1],3.57 OD450
same,OD450,[2],0.537 OD450
same,OD450,[3],1.81 OD450
